Measured values as given in the supplement of paper PMC4967469.

compound: CC1=C(C(=O)Nc2cc3cn[nH]c3cc2F)C(c2ccc(C(F)(F)F)cc2)CC(=O)N1 [GSK429286A]; experiment: Viability of human cancer cell lines after 72 h of drug (GDSC screen); conditions: top dose inferred
Experimental: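 Human cancer cell lines in 384-well plates, medium with 10% serum, drug for 72 h over a 256-fold dose range (nine 2-fold or five 4-fold steps up to the top dose). Adherent lines were fixed and stained with the nucleic acid dye Syto60, suspension lines read with resazurin; signal relative to control wells, capped at 0 and 100%. One two-parameter sigmoid per drug and line, fitted in a mixed model over all curves with the slope shared within a line.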

Cell Line | AUC | IC50 [µM]
LNCaP-Clone-FGC (prostate, adherent, top dose 20 µM) | 0.955 | > 20
OSC-19 (head and neck, adherent, top dose 20 µM) | 0.983 | > 20
HCC-33 (small cell lung carcinoma, adherent, top dose 20 µM) | 0.931 | > 20
NCI-H2170 (lung squamous cell carcinoma, adherent, top dose 20 µM) | 0.983 | > 20
Hs-445 (Hodgkin lymphoma, suspension, top dose 20 µM) | 0.924 | > 20
TT2609-C02 (thyroid, adherent, top dose 20 µM) | 0.911 | > 20
CP50-MEL-B (melanoma, adherent, top dose 20 µM) | 0.987 | > 20
PF-382 (T-cell lymphoblastic leukaemia, suspension, top dose 20 µM) | 0.705 | 4.33
PCI-4B (head and neck, adherent, top dose 20 µM) | 0.974 | > 20
SU-DHL-6 (B-cell lymphoma, suspension, top dose 20 µM) | 0.926 | 17.4
MZ2-MEL (melanoma, adherent, top dose 20 µM) | 0.971 | > 20
Hs683 (glioma, adherent, top dose 20 µM) | 0.984 | > 20
HEL (acute myeloid leukaemia, semi-adherent, top dose 20 µM) | 0.953 | > 20
OV-17R (ovary, adherent, top dose 20 µM) | 0.977 | > 20
EM-2 (chronic myeloid leukaemia, suspension, top dose 20 µM) | 0.755 | 7.58
HCC202 (breast, adherent, top dose 20 µM) | 0.874 | > 20
JVM-3 (lymphoid neoplasm, suspension, top dose 20 µM) | 0.984 | > 20
NUGC-4 (stomach, adherent, top dose 20 µM) | 0.987 | > 20
NCI-H647 (non-small cell lung carcinoma, adherent, top dose 20 µM) | 0.941 | > 20
AMO-1 (haematopoietic neoplasm, suspension, top dose 20 µM) | 0.944 | > 20
OE33 (oesophagus, adherent, top dose 20 µM) | 0.984 | > 20

Cell Line | AUC | IC50 [µM]
SK-N-AS (neuroblastoma, adherent, top dose 20 µM) | 0.984 | > 20
MDA-MB-415 (breast, adherent, top dose 20 µM) | 0.983 | > 20
JIMT-1 (breast, adherent, top dose 20 µM) | 0.983 | > 20
NH-12 (neuroblastoma, adherent, top dose 20 µM) | 0.915 | > 20
SNU-449 (liver, adherent, top dose 20 µM) | 0.972 | > 20
TE-1 (oesophagus, adherent, top dose 20 µM) | 0.982 | > 20
LOXIMVI (melanoma, semi-adherent, top dose 20 µM) | 0.983 | > 20
SK-N-DZ (neuroblastoma, adherent, top dose 20 µM) | 0.982 | > 20
OVKATE (ovary, adherent, top dose 20 µM) | 0.979 | > 20
OVTOKO (ovary, adherent, top dose 20 µM) | 0.954 | > 20
SW620 (large intestine, adherent, top dose 20 µM) | 0.935 | > 20
NOS-1 (osteosarcoma, adherent, top dose 20 µM) | 0.98 | > 20
MG-63 (osteosarcoma, adherent, top dose 20 µM) | 0.982 | > 20
J82 (bladder, adherent, top dose 20 µM) | 0.969 | > 20
CHL-1 (melanoma, adherent, top dose 20 µM) | 0.982 | > 20
SW626 (ovary, adherent, top dose 20 µM) | 0.983 | > 20
KYSE-150 (oesophagus, adherent, top dose 20 µM) | 0.96 | > 20
KYSE-70 (oesophagus, adherent, top dose 20 µM) | 0.982 | > 20
GRANTA-519 (B-cell lymphoma, suspension, top dose 20 µM) | 0.969 | > 20
CFPAC-1 (pancreas, adherent, top dose 20 µM) | 0.961 | > 20

The IC50 comes from the fitted curve, where viability falls to half of the control; a fit beyond the top or the lowest dose is shown as a bound at that dose. The AUC spans the tested range (256-fold, ending at the top dose) of the same fit; it is 1 without any effect and falls as sensitivity rises. The top dose, if marked as inferred, is not printed in the source and was worked back from the curve model.
